Measured values as given in PubChem BioAssay AID1963576 (National Center for Advancing Translational Sciences (NCATS), 2024).
Screen size: about 46,000 compounds; about 60 (0.1%) were called active. Not shown: some 3% with an inconclusive outcome. Calls come from the whole dose curve; as a rule, active = well fitted inhibition curve with a large enough effect; inconclusive = small, poorly fitted or top-dose-only effect; inactive = no such curve, though single readings can be large or run the other way. The list shows a part of the results.

Experiment: Primary qHTS assay for Inhibitors of ovarian cancer metastasis using an organotypic tumor microenvironment (TME) model.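 For activity change, negative = inhibition: plate controls were DMSO wells for no effect and tomatine positive control wells for full effect.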 Note: nearly all actives have a fitted effect of over 65% in size.
Details: SKOV3ip1-GFP adhesion/invasion on 3D omental model, fluorescence; series mostly up to 45.8 µM; activity change, negative = inhibition: at the top concentration
How it was run: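 qHTS, 4-pt dose (0.36-46 umol/L); SKOV3ip1-GFP, 1,200 cells/well, no FBS; primary omental fibroblast/mesothelial co-culture 48 h pre-grown; 2 h RT + 16 h 37 C; PBS wash, 4% PFA; GFP count 488/509 nm.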

outcome, inactive:
CC(C)c1nn2c(=O)cc(COC(=O)c3ccco3)nc2s1
O=C(CSc1nc(=O)[nH]c2c1CCCC2)NCc1ccccc1
Cc1ccc(S(=O)(=O)CC(=O)N2CCN(c3nc4c(F)cccc4s3)CC2)cc1
COc1ccc(CNC(=O)CCc2c(C)c3cc4c(C)coc4c(C)c3oc2=O)cc1OC
CCCc1nn2c(=O)cc(COC(=O)c3ccc(NC(=O)COc4ccccc4)cc3)nc2s1
COc1ccc(N(C)C(=O)c2cn(C)c(=O)c3cc(OC)c(OC)cc23)cc1
Cc1ccc(-c2ccc(=O)n(CCC(=O)NCCc3ccccc3)n2)cc1
Cc1cccc(N2CCN(C(=O)C3CCN(S(=O)(=O)c4c(C)noc4C)CC3)CC2C)c1 (stereo not drawn)
CCCC(=O)OCc1cnc(C)c2oc(=O)c(C(=O)Nc3cccc(C(F)(F)F)c3)cc12
COc1cccc(N2CCN(C(=O)C3CCN(S(=O)(=O)c4c(C)noc4/C=C/c4ccccc4F)CC3)CC2)c1
CC(C)(C)C(=O)NCC(c1ccc2c(c1)OCO2)N1CCOCC1 (stereo not drawn)
COC(=O)c1cc2oc3ccccc3c2n1Cc1ccccc1Cl
COc1ccccc1CNC(=O)CCCCn1c(=O)c2ccccc2n(CC(=O)Nc2cccc(Cl)c2)c1=O
CCOc1ccc(/C=C/c2nc(C#N)c(N3CCC(C)CC3)o2)cc1
CCOC(=O)CSc1nc2sc3c(c2c(=O)n1-c1ccc(OC)cc1)CC(C(C)C)OC3 (stereo not drawn)
COC(=O)c1c(-c2cccs2)csc1NC(=O)c1ccc(C)cc1
CCOc1ccc(Sc2cc(C(=O)NCc3ccccc3Cl)c3ccccc3n2)cc1
CCc1ccc(NC(=O)Cn2c(=O)n(CCCC(=O)NCCc3ccc(OC)c(OC)c3)c(=O)c3ccccc32)cc1
CCOC(=O)N1CCc2c(sc3c2C(=O)NC(c2ccc(C(=O)OC)cc2)N3)C1 (stereo not drawn)
Cc1cnc(=O)[nH]c1SCC(=O)Nc1cc(C(F)(F)F)ccc1Cl
CCOC(=O)c1ccc2c(c1)N(Cc1ccc(F)cc1Cl)C(=O)c1ccccc1S2
Cc1ccc(CNC(=O)CCCN2C(=O)CCn3nc(-c4cccn4C)cc32)cc1
CCCNC(=O)C1CCN(c2nc3ccc(C)cc3[nH]2)CC1

Activity change, negative = inhibition, inactive:
Cc1c(C)c2cc3c(c(C)c2oc1=O)OCN(CCc1ccc(F)cc1)C3 -7.09%
Cc1nn2c(C)c(C(=O)NC(C)(C)C)cnc2c1-c1ccc(F)cc1 2.62%
COc1ccccc1C(=O)Nc1ccc(C(=O)OCc2cc(=O)n3nc(C4CC4)sc3n2)cc1 7.53%
COc1ccc(N2C(=O)CSC23C(=O)N(CC(=O)NCCc2ccccc2)c2ccccc23)cc1 (stereo not drawn) 21.9%
CCc1ccc(Cn2c(CNS(=O)(=O)c3ccc(C)c(C)c3)nc3cccnc32)cc1 9.63%
COc1ccc(NC(=O)Cn2c(=O)n(Cc3ccccc3)c(=O)c3sc4ccccc4c32)cc1 24.9%
CCOc1ccc(C(=O)Nc2ccc3oc(-c4ccc5ccccc5c4)nc3c2)cc1 3.39%
CCCCNC(=O)c1cc2n(n1)CCCN(Cc1ccc(C)cc1)C2=O 21.3%
Cc1ccc(N2CC(NC(=O)c3cc4ccccc4o3)CC2=O)cc1 (stereo not drawn) -7.83%
N#Cc1ccccc1NS(=O)(=O)c1ccc(N2CCCCS2(=O)=O)cc1 16.1%
CN1C(=O)c2ccccc2Sc2ccc(NC(=O)c3ccc(C(F)(F)F)cc3)cc21 -8.92%
COc1ccc(-c2nc3scc(CCNS(=O)(=O)c4ccc(F)cc4C)n3n2)cc1 -28.7%
COC(=O)c1cc2oc3ccccc3c2n1Cc1ccc(Cl)cc1 -11.7%
CCn1c2c(c(=O)n3ncc(C(=O)N4CCN(c5ccc(Cl)cc5)CC4)c13)CN(Cc1ccc(OC)cc1)CC2 2.76%
CCC(Oc1ccc(F)cc1)C(=O)Nc1c(C(=O)c2ccc(C)cc2)oc2ccccc12 (stereo not drawn) -7.68%
CCn1cc(C(=O)N2CCN(c3ccccc3)CC2)c(=O)c2cc(S(=O)(=O)N3CCOCC3)ccc21 7.77%
COc1ccc(NC(=O)c2ccc3nc(C(C)C)oc3c2)cc1OC 8.65%
Cc1ccc(Cn2c(CO)cnc2SCC(=O)Nc2ccc(C)c(Cl)c2)cc1 10.7%
CC(C)COc1ccc(C(=O)N2CCN(CCc3ccncc3)CC2)cc1 8.28%
O=C1CSC2(C(=O)N(Cc3cccc(F)c3)c3ccccc32)N1c1cccc(C(F)(F)F)c1 (stereo not drawn) 52.8%
CC(C)(F)C[C@H](N[C@@H](c1ccc(-c2ccc(S(C)(=O)=O)cc2)cc1)C(F)(F)F)C(=O)NC1(C#N)CC1 -7.71%
CCOC(=O)c1[nH]c(C)c(CCC(=O)NCc2ccc(CC)cc2)c1C 5.59%
CCN(CC)CCNC(=O)c1cc2c(=O)n(C)c3cc(Cl)ccc3c2s1 -4.78%
COc1ccc(Nc2cc(C(=O)NCCCN3CCN(c4ccccc4F)CC3)c3ccccc3n2)c(OC)c1 -26.9%
COc1cccc(CN2c3ccccc3-c3nc(SCC(=O)Nc4ccccc4Cl)ncc3S2(=O)=O)c1 0.707%
CON=C(C(=O)N[C@@H]1C(=O)N2C(C(=O)OCOC(=O)C(C)(C)C)=C(C=Cc3scnc3C)CS[C@H]12)c1csc(N)n1 25.4%
COc1ccc(N(Cc2cccs2)C(=O)c2ccc(OC)c(Cl)c2)cc1 -12.8%
COc1ccc(NC(=O)Cn2cc(S(=O)(=O)c3ccccc3)c(=O)c3cc4c(cc32)OCO4)cc1 8.17%
COC(=O)c1ccc(NC(=O)CC2C(=O)N(c3ccccc3)C(=O)N2Cc2ccc(F)cc2)cc1 (stereo not drawn) 2.53%
CCC(=O)Nc1ccccc1-c1nc2ccccc2n(CC(=O)Nc2ccccc2OC)c1=O -4.27%
Cc1c(C(=O)Nc2ccccc2)sc2nc(-c3cc4cc(Cl)ccc4oc3=O)[nH]c(=O)c12 -3.47%
CCCS(=O)(=O)c1c(S(=O)(=O)CCC)c2cc(C(C)(C)C)ccn2c1C(=O)c1ccccc1 3.41%
O=C(Cn1ccn(-c2ccc(F)cc2)c(=O)c1=O)Nc1ccc(F)cc1 -3.49%
Cc1cccc(C)c1NC(=O)C(NS(=O)(=O)c1cccs1)c1ccccc1 (stereo not drawn) 7.87%
O=C(NCCc1ccc(Cl)cc1)c1ccc(CS(=O)(=O)c2ccc(Cl)cc2)o1 -15.7%
O=C(CSc1nnc(-c2cccs2)o1)Oc1ccccc1Cl 4.19%
COc1cccc(N2CCN(C(=O)c3cc4c(s3)-c3ccccc3OC4)CC2)c1 -7.13%
CCN(CC)C(=O)c1sc2c(c1C)c(=O)n(CCc1ccccc1)c(=O)n2Cc1cc(C)ccc1C 3.29%
COc1cc(CNC(=O)c2ccc3c(c2)c(C)c(C)n3Cc2cccc(C)c2)cc(OC)c1OC 0.176%
O=C(Cn1ncc2c3ccccc3n(Cc3cccc(Cl)c3)c2c1=O)Nc1ccc(F)cc1F -0.82%
CCc1ccc(Sc2cc(C(=O)NCCCN3CCC(C)CC3)c3ccccc3n2)cc1 20.7%
Cc1cccc(C)c1Nc1c(-c2ccsc2)nc2cccc(C)n12 8.07%
COc1ccccc1N1CCN(c2csc3ccccc3c2=O)CC1 2.21%
COc1cccc(NC(=O)Cn2c(-c3nonc3N)nc3ccccc32)c1 -4.04%
Cc1cccc(NC(=O)N2CCN3CCCCC3C2)c1C (stereo not drawn) 0.767%
COc1cc(NC(=O)CCS(=O)(=O)c2ccc3c(c2)n(C)c(=O)c(=O)n3C)cc(OC)c1 -9.32%
O=C(Nc1cc(Cl)ccc1Cl)c1cc(S(=O)(=O)N2CCc3ccccc3C2)ccc1F 1.02%
CCc1ccc(NC(=O)C2CCCN(c3nnc(C)c4c(C)n(-c5ccccc5)nc34)C2)cc1 (stereo not drawn) 8.69%
O=c1c(-c2cc(-c3ccccc3)nc3c2COc2ccccc2-3)coc2ccc(Cl)cc12 -16.1%
COc1ccc(CNC(=O)C(=O)Nc2cccc(C)c2C)cc1 -4.95%
COc1ccc2oc(-c3ccc(NC(=O)c4ccc(Cl)cc4Cl)cc3)nc2c1 -25.5%
Cc1ccc(-n2ncc3c(N4CCN(c5ccc(F)cc5)CC4)ncnc32)cc1 -7.89%
Cc1ccccc1N1CC(c2nc3ccccc3n2Cc2ccc(Br)cc2)CC1=O (stereo not drawn) -3.31%
Cc1cc(Br)ccc1NC(=O)c1c(C)oc2ncnc(N3CCCCC3)c12 -4.89%
COc1cc2nccc(Oc3ccc(NC(=O)Nc4ccc(F)cc4F)c(F)c3)c2cc1OC -20%
Cc1cc(NC(=O)c2cc(-c3ccc(Cl)c(Cl)c3)on2)n(-c2ccccc2)n1 0.693%
CCOc1ccc(CNC(=O)C2CCN(C(=O)N3CC(CC)Oc4ccc(C)cc43)CC2)cc1OC (stereo not drawn) -13.1%
COc1ccccc1NC(=O)Cn1c(=O)n(CC2CCC(C(=O)NCCc3ccccc3)CC2)c(=O)c2ccccc21 (stereo not drawn) 3.52%
O=C(Cn1c(-c2cccs2)cc2ccccc21)N1CCN(c2ccc(F)cc2)CC1 4.87%
Cc1ccc(CNS(=O)(=O)c2ccc3c(c2)CC(C)N3C(=O)C2CCC2)cc1 (stereo not drawn) 9.94%
COc1ccc(OC)c(C(=O)CN2C(=O)N(c3ccc(C)cc3)S(=O)(=O)c3ccccc32)c1 -9.51%
Cc1ccccc1NC(=O)CCn1nc(-c2ccccc2)c2ccccc2c1=O -4.51%
Cc1nnc(SCC(=O)Nc2ccc(N(C)C)cc2)[nH]c1=O -0.355%
CCN(CC)CCOC(=O)c1ccc(NC(=O)c2cc3cc(OC)ccc3oc2=O)cc1 42.4%
COCCNC(=O)CN1C(=O)COc2ccc(S(=O)(=O)N3CCCC3)cc21 -4.62%
Cc1c(Cl)cccc1-n1nc(C)c2c(C)cc(=O)n(CC(=O)N3CCCc4ccccc43)c21 -4.76%
CCOc1cc(C=C2C(=O)N(c3ccccc3)N=C2C)cc(Cl)c1OCC(=O)OC 2.51%
COc1ccc(-c2nc3ccccc3n3c(-c4ccc(OC)cc4)c4c(=O)n(C)c(=O)n(C)c4c23)cc1 -3.96%
CCCOc1ccc(CNC(=O)C2CCN(C(=O)c3sccc3-n3cccc3)CC2)cc1 15.5%
Cc1cc2oc3c(c(=O)c2cc1C)C(c1ccc(C(C)C)cc1)N(c1nc(C)c(C)s1)C3=O (stereo not drawn) -10.3%
